Test results: publication PMC7819943, “Rice protein-binding microarrays: a tool to detect cis-acting elements near promoter regions in rice”
Some of the results follow.

These sequences were tested against T1, OsWOX13 (Oryza sativa, UniProt Q5QMM3 1-267) (assay: protein-binding microarray (RPBM); PBS, 2% BSA, 51.3 ng/ul salmon testes DNA, 50 uM zinc acetate, 200 nM TF, 25 C, 1 h; high values mean tight binding). Conditions: protein: recombinant; tags: N-terminal polyhistidine and DsRed monomer fusion (pET32a); label: CyDye5-dUTP incorporated in the synthesized complementary strand; 3' TTTTT single-stranded linker to array surface; dsDNA, one strand shown.
T1 sequence: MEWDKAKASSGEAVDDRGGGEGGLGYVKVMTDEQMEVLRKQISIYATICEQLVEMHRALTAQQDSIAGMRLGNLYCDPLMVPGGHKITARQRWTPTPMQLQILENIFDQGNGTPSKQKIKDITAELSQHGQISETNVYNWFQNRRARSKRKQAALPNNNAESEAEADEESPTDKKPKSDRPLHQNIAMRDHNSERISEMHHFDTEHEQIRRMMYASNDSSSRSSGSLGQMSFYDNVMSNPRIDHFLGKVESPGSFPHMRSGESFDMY
In short: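 Using Ni–NTA, transcription factors fused N-terminally to polyhistidine and DsRed were purified after expression in E. coli BL21-CodonPlus. These were incubated at 200 nM with a blocked, double-stranded custom Agilent array for 1 h at 25 °C in a buffer containing 50 µM zinc acetate, and the array was washed. The binding signal is per-feature fluorescence intensity (arbitrary units) on an Axon 4000B scanner.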

Sequence	binding signal
AGTCAATCGTGCCAGTCTGACTCGAATCGTCGGTCGTTCTCGGAGTCACCTAGTGCAG	3400 fluorescence intensity (a.u.)
AATAAATCATATGCATAATAAGCGAAACAATGGGCTGTCGCGGAGTCACCTAGTGCAG	4910 fluorescence intensity (a.u.)
AAAGATTAGAACATTCAGCTAAGTGTCTTCCTGCTGATATCGGAGTCACCTAGTGCAG	5320 fluorescence intensity (a.u.)
ACATGAACATATATAGATTGACATATAGTTTAGCAGTTCACGGAGTCACCTAGTGCAG	18300 fluorescence intensity (a.u.)
TTAAATTTGCAAAACAAATTTTGAAAACTTTCAATTCAGACGGAGTCACCTAGTGCAG	15000 fluorescence intensity (a.u.)
TTACTCGTCAATCCACCGATTACAGCTATCTCAAACGGAGCGGAGTCACCTAGTGCAG	8630 fluorescence intensity (a.u.)
ATCTCTAGATTAAGATTAATTTCAACTCTGGTCTGCAGTACGGAGTCACCTAGTGCAG	15200 fluorescence intensity (a.u.)
AAAATTGAAGATGTTTCCGCGGTTCATCATCCGTGTTTGACGGAGTCACCTAGTGCAG	6270 fluorescence intensity (a.u.)
TAGTGGGGAGGCGGTGGTGCTGCGGGGAGGGAGGGAGCACCGGAGTCACCTAGTGCAG	4360 fluorescence intensity (a.u.)
TGTCCATCAATTTCGTAACTACTATTAACTCACCAGGGACCGGAGTCACCTAGTGCAG	13900 fluorescence intensity (a.u.)
CAGCCCATCTGATTAGATAGAGTGCACTCAGTCCCTTCCCCGGAGTCACCTAGTGCAG	12300 fluorescence intensity (a.u.)
CTCACATAATGTGTGTGTAATTTGAGGTGCCAATGAAACGCGGAGTCACCTAGTGCAG	4620 fluorescence intensity (a.u.)
AGCTGAATTTAATTAACAATCACCGATGATGGCCGGTCGACGGAGTCACCTAGTGCAG	32000 fluorescence intensity (a.u.)
GAGCATAATTACGCCATGATTTGATAATGTGATGCTACAGCGGAGTCACCTAGTGCAG	40700 fluorescence intensity (a.u.)
ACCATCATTCCAAATTGATCATGATATATATTTATGCACCCGGAGTCACCTAGTGCAG	8060 fluorescence intensity (a.u.)
TTAGATTGGTTTTGCTCTTATGTGATAGACTAGTCAATATCGGAGTCACCTAGTGCAG	35500 fluorescence intensity (a.u.)
AACGAAATTAAGGAGATTACTGGAACCCAACTAGTAGTAACGGAGTCACCTAGTGCAG	6510 fluorescence intensity (a.u.)
ATGTGATTGACCTGAGAAAATGAAGTCAACTCAAAGTTCTCGGAGTCACCTAGTGCAG	44100 fluorescence intensity (a.u.)
AACAGACTAATCAAATAATGACCAGCTCAATCGACTCTAGCGGAGTCACCTAGTGCAG	7840 fluorescence intensity (a.u.)
AGGGTAAATTGGAACCATGCCATTATAATTTTGCAAAGTTCGGAGTCACCTAGTGCAG	11800 fluorescence intensity (a.u.)
ATTACAAATCTAGAAAATCAGAAATTGCGTCGACATCACACGGAGTCACCTAGTGCAG	3300 fluorescence intensity (a.u.)
ATGTTTGTTCTTACATGATTATCTTTAAGTGATCTCGGTCCGGAGTCACCTAGTGCAG	4010 fluorescence intensity (a.u.)
GCATCCCATTAATTGGATTAATCTCTAGCCACACGTAGTACGGAGTCACCTAGTGCAG	33700 fluorescence intensity (a.u.)
